Test results taken from PubChem BioAssay AID651595 (National Center for Advancing Translational Sciences (NCATS), 2012).
Hit rate of the full screen: of about 1,100 compounds, fewer than 10 were called active. Calls come from the whole dose curve; as a rule, active = well fitted cell-killing curve with a large enough effect; inconclusive = small, poorly fitted or top-dose-only effect; inactive = flat fitted curve, though single readings scatter. The inconclusive results got no clear call from the source. Where the call is inconclusive, the potency comes from a doubtful curve fit.

Test: qHTS of Nrf2 Activators: Hit Validation in Cytotox Assay;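 note: compound exposure lasted 24 hours before the ATP readout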
Conditions: Cell viability counter-screen for Nrf2 activator hits
Text: Many diseases have some form of oxidative stress injury and ties to inflammation, causing a host of problems for the patient. The antioxidant response element (ARE) plays an important role in alleviating the harmful effects of oxidative stress. The antioxidant response element (ARE) is a transcriptional regulatory element involved in the activation of genes coding for a number of antioxidant proteins and detoxifying enzymes. These enzymes work in concert to protect tissues from oxidative insults and chemical toxicities in human hepatocytes and immune cells. The protective effects of ARE activation are primarily triggered through Nrf2 (NF-E2-related factor) binding to and activating AREs. It is known that Nrf2 controls the production of over 250 antioxidant and detoxification proteins (Hu et al., 2006), thereby protecting tissues by increasing cellular antioxidant content and suppressing inflammatory signaling pathways. The transcription factor Nrf2 is a central link between oxidative chemicals, such as phenolic antioxidants and electrophilic compounds, and the activation of ARE. […]
Cell viability after compound treatment was measured using a luciferase-coupled ATP quantitation assay (CellTiter-Glo, Promega) in AREc32_fluc cells. […] The plates were measured on a ViewLux plate reader (PerkinElmer) with clear filter.
Potency is the fitted concentration of half-maximal effect; tags give direction and shape of the fitted curve.

SMILES | Potency
Cn1c(O)c(N=Nc2ccc(S(=O)(=O)N3CCOCC3)cc2)c(=O)n(C)c1=O | inconclusive: 23.1 µM [cytotoxic, single point]
